# In the supplement of paper PMC3334620:
# Whole data set: some 33,000 sequences, median “E-score (-0.5 to 0.5)” near -0.017, cut for the highest 2% near 0.3. The list shows a part of the results.
# Molecular target: T1, Sut1 (UniProt P53032)
# T1 sequence: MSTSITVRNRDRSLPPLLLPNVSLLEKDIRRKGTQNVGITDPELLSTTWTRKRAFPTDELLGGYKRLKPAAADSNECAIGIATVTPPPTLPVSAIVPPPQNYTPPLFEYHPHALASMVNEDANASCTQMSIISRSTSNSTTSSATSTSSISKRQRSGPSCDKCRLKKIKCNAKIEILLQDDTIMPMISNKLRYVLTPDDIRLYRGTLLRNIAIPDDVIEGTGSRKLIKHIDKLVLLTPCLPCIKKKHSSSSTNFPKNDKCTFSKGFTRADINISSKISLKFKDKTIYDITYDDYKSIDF
# Assay: PBM E-score (8-mer binding enrichment) (E-score (-0.5 to 0.5)); higher = stronger / more preferred TF binding; most listed sequences are background and not binding sites
# Settings: protein concentration: 200 nM; construct: GST-full length
# Procedure, shortened: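 Universal all-10-mer Agilent arrays, fresh or stripped once, were converted to double-stranded form by primer extension. GST-tagged yeast transcription factors from PURExpress in vitro transcription/translation, full-length or DNA-binding domain only, were applied at about 100-200 nM and detected with fluorescent anti-GST. After masliner normalisation, the Universal PBM Analysis Suite scored each ungapped eight-base word together with its reverse complement by E-score.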
row,Sequence,PBM E-score
1,GGAAACGA,0.0755
2,AAGCAGCC,-0.105
3,AGAATTAA,0.141
4,TCCGCCGA,0.134
5,AACCGGTT,0.118
6,AATGCCAT,0.12
7,TCATATGA,0.266
8,ACGCTCTC,-0.0447
9,CTAACGTA,-0.00176
10,GGTATCTA,0.061
11,GTAATTAA,0.161
12,AGAGTGAC,-0.2
13,CTATGTCA,-0.0412
14,ACTATTGG,-0.124
15,CCTAATGA,-0.0128
16,CGTTGAGA,0.128
17,AGGCTTTC,0.108
18,ACAACTTG,-0.0793
19,ACACCACA,-0.0743
20,ACCCTTGC,-0.271
21,GATATAAA,0.117
22,GATTATGC,0.0186
23,ACGGCAAC,-0.113
24,CCCGAGCG,0.0794
25,AAGAACCT,0.00916

row,Sequence,PBM E-score
1,ATGGAATG,0.115
2,AACGCACC,-0.164
3,ACTGTATC,-0.0186
4,ATACAGTC,-0.043
5,ATCTTCGC,-0.00336
6,GGAAATAA,0.24
7,AAAAGGGG,-0.146
8,CGGGTTAA,-0.0456
9,CGCCATCA,-0.246
10,GGGGTGTA,-0.327
11,CATGACGG,-0.123
12,AGCACCTA,-0.171
13,CCCCGGCA,0.0139
14,CATTACAG,-0.142
15,AGGCATAG,-0.0231
16,TCGTAGAA,0.0134
17,ATAGGTGC,-0.154
18,CGAGATAA,0.2
19,ATAGCGTG,-0.123
20,ATTGATTC,0.237
21,ACACATGA,0.0583
22,ACCGTCTG,-0.182
23,AGGATAGC,0.0235
24,TCAACTGA,0.00098
25,AAATGGTG,0.0677

row,Sequence,PBM E-score
1,AACAGAAC,0.0274
2,TAGAAGGA,-0.102
3,AGGCTCTG,-0.174
4,CACCTTAC,-0.134
5,CCGGGCCG,0.155
6,TATCCAGA,-0.0189
7,CCACTGAA,0.122
8,AGCCGACC,-0.261
9,CATTAGCC,-0.142
10,GCTCTCTA,-0.093
11,GCGTAAAA,0.0981
12,ATGCGATG,0.0151
13,ACGAGATG,-0.168
14,CGTTGAAA,0.00116
15,CTTTTAGC,0.0399
16,TCACCAAA,0.0811
17,AACTCTAA,0.217
18,GGATGATA,0.0477
19,CTGGCCAG,-0.348
20,GCGAGCAA,0.0413
21,CTCTAAAC,-0.0466
22,CGCCGCAC,-0.0969
23,CGACTGTC,-0.166
24,AAGCCTGT,-0.00955
25,CGCAAATC,-0.0911

row,Sequence,PBM E-score
1,CTGCCACA,-0.22
2,AGCACAAG,0.0739
3,ACGCTCAA,0.0487
4,CGCGCCCG,-0.254
5,AGATCCGA,0.145
6,ATTTCCGC,0.156
7,CGAGAGCA,-0.0395
8,CTTGAAAA,0.0874
9,AACCGGTC,0.0286
10,AGACCGGA,0.277
11,ATCCCCTA,-0.254
12,AATTTCCC,0.039
13,GTTACCTA,-0.00806
14,CAGGCTAA,-0.0895
15,CGAAAACA,0.123
16,CTACTAAG,-0.0294
17,GTAGTCTA,0.00017
18,CGGTACTA,0.00756
19,TGCATACA,0.11
20,TAAATTGA,0.262
21,ATCCCGAA,0.111
22,AGAGCATG,-0.211
23,AATGTTCT,0.108
24,AGTAAACT,0.0487
25,AGCGCGTA,-0.0462

row,Sequence,PBM E-score
1,GCGGACGA,0.0485
2,ACCTGAAG,0.0289
3,AAATAGGT,0.0548
4,AAGTCATG,0.0221
5,ACACATTC,0.116
6,AAATGAGA,0.0241
7,CACTGAGA,-0.272
8,CGGCAGAG,-0.194
9,AATCGTTG,0.0316
10,AGAGGGAA,-0.286
11,CCGCAACC,0.0294
12,CCGGAATC,0.326
13,CGGGGCAC,-0.18
14,CTACGGCC,-0.308
15,TGAATGCA,0.154
16,CGTTCCCC,-0.118
17,GGTAACGA,-0.111
18,ACGTATGA,0.175
19,ACGATTTA,0.215
20,GGAATCCA,0.0206
21,AATATCAT,0.273
22,ACTCAACT,0.218
23,TCCACAAA,0.095
24,AATCCTAA,-0.0139
25,GAAAGCTA,-0.139

row,Sequence,PBM E-score
1,GATTTTCA,0.136
2,AGGGGTAG,-0.262
3,AGACAGTA,0.0419
4,AACGTCTG,-0.155
5,CATTCGAC,0.0276
6,CCGCAGGC,-0.079
7,ACCCTACA,0.024
8,AATTGGGC,-0.0355
9,CCTAGTGC,-0.117
10,AAGCAGAA,0.185
11,ACCCCTCC,-0.281
12,AAGCCACT,-0.0761
13,CTAGCAAA,0.124
14,AAGGAGAT,0.137
15,ACGAGACT,-0.153
16,ATTAGGGG,-0.154
17,CGCCCCCA,-0.206
18,AACGCGGA,0.297
19,GGAGCCAA,-0.0454
20,GCCGGGGA,-0.143
21,ATAGCATA,0.0255
22,GCTACTAA,0.0736
23,ACCCGAAC,0.157
24,ATGGTACA,0.0306
25,AGGGGTTG,-0.166

row,Sequence,PBM E-score
1,GAAGAAGC,-0.0412
2,TGCGACAA,-0.102
3,CCGCCAGG,-0.315
4,CAGTGAGC,-0.117
5,TCCTCCCA,-0.247
6,AGGAAGGG,-0.157
7,AAAAAAAA,0.228
8,ACTGTAGC,-0.0755
9,AATCTTGG,0.0389
10,CGGCCGTA,-0.241
11,CTCTAGCA,-0.127
12,TAGACCCA,-0.211
13,AGGTACAC,-0.111
14,CACCCACA,-0.135
15,CCACGGGA,-0.156
16,GATTATCC,0.0469
17,CTCTCTAC,-0.0806
18,ATGGGTGA,-0.18
19,CCGACACG,-0.155
20,GTTCCACA,-0.0384
21,CGGTCGCA,-0.218
22,GGGCACCA,-0.157
